# Measured values published in PubChem BioAssay AID1460 (National Center for Advancing Translational Sciences (NCATS), 2008).
# The whole screen tested about 270,000 compounds, of which about 5,800 (2.1%) were called active. The shares of active, inactive and inconclusive entries below differ from those in the screen. Calls follow the shape of the dose curve; as a rule, active = well fitted inhibition curve with a large enough effect; inconclusive = small, poorly fitted or top-dose-only effect; inactive = flat fitted curve, though single readings scatter. Potencies of inconclusive entries are doubtful fits and often do not repeat.
# Target: Microtubule-associated protein tau (Homo sapiens) (UniProt P10636)
# Assay: qHTS for Inhibitors of Tau Fibril Formation, Thioflavin T Binding; also: nearly all actives have a fitted effect of over 55% in size
# Conditions: recombinant tau K18 P301L (four-repeat tau fragment), heparin-induced fibrillization, ThT fluorescence; series mostly up to 57.4 µM
# Procedure, shortened: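 Tau K18 P301L fragment (15 uM unlabeled plus 0.24 uM Alexa 594-labeled) in 100 mM sodium acetate pH 7 with compound, fibrillization induced by 20 uM heparin for 6 hr at 37 C. Thioflavin T (30 uM) added, fluorescence read after 1 hr (ex 450, em 510 nm).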
# Potency is read from the fitted curve at half-maximal effect; tags tell the direction and shape of the fitted curve.
# Sequence of UniProt P10636 (P10636 whole entry, looked up): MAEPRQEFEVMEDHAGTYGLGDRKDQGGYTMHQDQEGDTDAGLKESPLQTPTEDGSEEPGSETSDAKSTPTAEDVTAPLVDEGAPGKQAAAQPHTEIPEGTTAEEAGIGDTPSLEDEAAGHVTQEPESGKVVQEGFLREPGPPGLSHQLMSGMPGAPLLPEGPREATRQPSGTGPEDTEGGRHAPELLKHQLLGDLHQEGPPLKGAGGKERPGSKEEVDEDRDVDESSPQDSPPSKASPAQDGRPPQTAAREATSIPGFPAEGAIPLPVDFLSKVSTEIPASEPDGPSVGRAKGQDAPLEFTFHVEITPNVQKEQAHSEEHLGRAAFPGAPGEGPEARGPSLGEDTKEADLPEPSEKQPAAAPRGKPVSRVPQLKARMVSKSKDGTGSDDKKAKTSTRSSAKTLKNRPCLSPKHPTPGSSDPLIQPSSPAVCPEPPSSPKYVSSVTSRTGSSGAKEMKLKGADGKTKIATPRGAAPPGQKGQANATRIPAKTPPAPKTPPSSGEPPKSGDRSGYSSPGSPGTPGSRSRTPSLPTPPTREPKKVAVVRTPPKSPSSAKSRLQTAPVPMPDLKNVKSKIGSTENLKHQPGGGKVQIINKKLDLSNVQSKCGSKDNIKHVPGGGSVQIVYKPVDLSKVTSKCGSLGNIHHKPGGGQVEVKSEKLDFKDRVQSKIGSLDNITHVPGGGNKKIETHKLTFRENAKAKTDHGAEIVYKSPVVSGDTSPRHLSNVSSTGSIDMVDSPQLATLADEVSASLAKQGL
row,Compound,Potency
1,CCc1c(C)sc(NC(=O)/C=C/c2ccc3c(c2)OCO3)c1C(=O)OC,inactive
2,CCOc1ncccc1C(=O)OCC(=O)N1CCc2ccccc21,inactive
3,CC(C)c1ccc(N(C(=O)c2csnn2)C(C(=O)NC(C)(C)C)c2cccnc2)cc1 (stereo not given),inactive
4,Cc1ccc2scc(N3CCCC(C)C3)c(=O)c2c1 (stereo not given),"inconclusive: 12.6 µM [inhibitor, partial curve]"
5,CC(C)(C)c1ccc(-c2nnc(NC(=O)c3ccccc3)s2)cc1,inactive
6,CN(C)c1ccc(N/C=C/C(=O)C(C)(C)C)cc1,active: 15.8 µM
7,CN(C)S(=O)(=O)c1ccc(C(=O)OCC(=O)Nc2ccccc2OC(F)F)cc1,inactive
8,Cc1sc(N/N=C/C=C/c2ccccc2)nc1-c1ccccc1,"inconclusive: 3.55 µM [inhibitor, full curve]"
9,C=CCN=Cc1sc2ccc(OCC)cc2c1O,"inconclusive: 14.1 µM [inhibitor, partial curve]"
10,Cc1ccc(-n2nc3c(N4CCCC(C(=O)NCc5ccccc5C)C4)nnc(C)c3c2C)cc1 (stereo not given),"inconclusive: 39.8 µM [inhibitor, single point]"
11,Cc1cc(-c2n[nH]c(=S)n2/N=C/c2ccc(Br)s2)n[nH]1,"inconclusive: 4.47 µM [inhibitor, partial curve]"
12,O=[N+]([O-])c1cc([N+](=O)[O-])c2cccnc2c1O,active: 12.6 µM
13,O=C1c2ccccc2C(=O)N1CSc1nnc(Nc2ccccc2)s1,inactive
14,COC(=O)c1c(NC(=O)CS(=O)(=O)c2ccc(C)cc2)sc2c1CCCCC2,inactive
15,COc1cc2c(C(=O)O)c(C)n(-c3ccccc3)c2c2ccccc12,"inconclusive: 12.6 µM [inhibitor, partial curve]"
16,COc1ccc(-c2[nH]c(-c3ccc(C)cc3)nc2SCC(=O)NCC2CCCO2)cc1 (stereo not given),"inconclusive: 22.4 µM [inhibitor, partial curve]"
17,Cc1ccc(-c2csc3nc(C)n(N)c(=O)c23)o1,"inconclusive: 14.1 µM [inhibitor, partial curve, poor fit]"
18,COC(=O)c1cc(OC)c(OC)cc1NCC(=O)Nc1cccc(C(F)(F)F)c1,"inconclusive: 22.4 µM [inhibitor, single point]"
19,CCc1sc(C(=O)N2CCc3ccccc32)cc1C,"inconclusive: 12.6 µM [inhibitor, partial curve]"
20,O=Cc1cc2ccccc2nc1SCc1ccc(Cl)cc1,"inconclusive: 15.8 µM [inhibitor, partial curve]"
21,CC(=O)c1c(C)n(-c2cccc(Cl)c2)c2ccc(OC(=O)c3ccccc3)cc12,inactive
22,O=c1oc2ccccc2c(NCc2ccccc2)c1[N+](=O)[O-],inactive
23,CCCCNc1ccc2nsnc2c1[N+](=O)[O-],"inconclusive: 15.8 µM [inhibitor, partial curve]"

row,Compound,Potency
1,Cc1ccc(NC(=O)N2CCN3CCCCC3C2)cc1C (stereo not given),inactive
2,Cn1cccc1C(=O)NC(=O)CSc1nc2ccccc2s1,"inconclusive: 28.2 µM [inhibitor, partial curve, poor fit]"
3,Cc1c(Cl)cccc1-n1ncc(C(=O)NC2CCCC2)c1C1CCN(C(=O)OC(C)(C)C)CC1,inactive
4,CC(C)c1ccc(NC(=O)CSC2=Nc3ccccc3C3=NC(CCC(=O)NCc4cccs4)C(=O)N23)cc1 (stereo not given),"inconclusive: 31.6 µM [activator, single point]"
5,COc1cc(C#N)ccc1OCC(=O)Nc1cccc(S(=O)(=O)N2CCCC2)c1,inactive
6,COc1cc(Cl)c(NS(=O)(=O)c2cc3[nH]c(=O)c(=O)[nH]c3cc2C)c(OC)c1,"inconclusive: 39.8 µM [inhibitor, single point]"
7,CCOc1ccc2nc(/N=C/c3c(C)[nH]n(-c4ccccc4)c3=O)sc2c1,active: 14.1 µM
8,Cc1nc(S/C(=C/c2ccc(OCc3ccc(C(=O)O)cc3)cc2)C(=O)O)n[nH]1,"inconclusive: 15.8 µM [inhibitor, partial curve]"
9,O=C(COc1ccc(Br)cc1)c1ccc2c(c1)CCCC2,"inconclusive: 14.1 µM [inhibitor, partial curve]"
10,CO/N=C/c1ccc(N2CCN(C(=O)c3cccc(C(F)(F)F)c3)CC2)c([N+](=O)[O-])c1,"inconclusive: 14.1 µM [inhibitor, partial curve]"
11,Cc1ccccc1C(=O)Nc1nc(-c2cccnc2)cs1,"inconclusive: 12.6 µM [inhibitor, partial curve]"
12,COc1ccc(/C=C\C(=O)c2c(O)ccc3c(C)cc(=O)oc23)cc1,"inconclusive: 11.2 µM [inhibitor, partial curve]"
13,COc1ccc(-c2nc3scc(CCNS(=O)(=O)c4cccs4)n3n2)cc1,inactive
14,CCS(=O)(=O)N1CC(=O)N(c2cc(Cl)ccc2C)C(C)(C(=O)NC2CCCCCC2)C1 (stereo not given),inactive
15,COc1ccc(-n2c(N)c(C(=O)NCC3CCCO3)sc2=S)cc1 (stereo not given),inactive
16,C[C@H]1c2cccc(O)c2C(O)=C2C(=O)[C@]3(O)C(O)=C(C(N)=O)C(=O)C(N(C)C)[C@@H]3[C@@H](O)C21 (stereo not given in full),"inconclusive: 17.8 µM [inhibitor, partial curve]"
17,Cc1cc2c(cc1S(=O)(=O)CCC(=O)N1CCN(c3ccccc3)CC1)OCC(=O)N2,"inconclusive: 39.8 µM [inhibitor, single point]"
18,Cc1nnc(C)c2c(C)n(-c3ccccc3N)c(C)c12,"inconclusive: 3.98 µM [inhibitor, single point]"
19,COc1cc(/C=N\Nc2nc3ccccc3o2)cc(OC)c1OC,"inconclusive: 5.01 µM [inhibitor, partial curve]"
20,CCOc1ccc(NC(=S)Nc2ccc(OC)cc2)cc1,"inconclusive: 3.16 µM [inhibitor, full curve]"
21,Cc1ccc(NC(=O)Cn2cncc2-c2ccc([N+](=O)[O-])cc2)cc1C,"inconclusive: 14.1 µM [inhibitor, partial curve]"
22,COC(=O)c1ccc(/C(O)=C(\C#N)c2nc3ccccc3s2)cc1,"inconclusive: 2.82 µM [inhibitor, full curve, poor fit]"
